Experimental data published in patent US20090247734A1 (priority 2005, published 2009).

Target: full length YU2 gp120 (HIV-1 strain YU2) (UniProt P35961)
Assay: ITC, gp120 equilibrated with D1D2

## 17b (human monoclonal antibody of gp120)
  increase in ΔG value in the presence of D1D2: 0.8 kcal/mol
